Measured values: US20110177071A1 (PERSEID THERAPEUTICS, published 2011)

T1: human CD80-murine Ig fusion protein (human)
T1 construct: Bought (Ancell #510-820); also called hCD80-mIg; human CD80-murine IgG
T1 chain: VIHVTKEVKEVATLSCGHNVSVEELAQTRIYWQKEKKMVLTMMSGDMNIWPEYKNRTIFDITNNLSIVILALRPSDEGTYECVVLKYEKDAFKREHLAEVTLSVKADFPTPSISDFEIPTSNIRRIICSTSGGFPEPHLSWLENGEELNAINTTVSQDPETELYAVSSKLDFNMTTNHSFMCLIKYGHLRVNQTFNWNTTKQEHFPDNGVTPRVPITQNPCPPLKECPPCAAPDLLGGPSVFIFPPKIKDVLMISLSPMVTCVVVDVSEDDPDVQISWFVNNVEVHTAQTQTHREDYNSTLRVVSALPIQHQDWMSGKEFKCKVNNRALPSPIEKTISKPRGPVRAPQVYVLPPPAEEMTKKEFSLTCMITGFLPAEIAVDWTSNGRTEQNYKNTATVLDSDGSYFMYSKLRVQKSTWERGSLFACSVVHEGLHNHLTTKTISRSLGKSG

T2: human CD86-murine Ig fusion protein (human)
T2 construct: Bought (Ancell #509-820); also called hCD86-mIg
T2 chain: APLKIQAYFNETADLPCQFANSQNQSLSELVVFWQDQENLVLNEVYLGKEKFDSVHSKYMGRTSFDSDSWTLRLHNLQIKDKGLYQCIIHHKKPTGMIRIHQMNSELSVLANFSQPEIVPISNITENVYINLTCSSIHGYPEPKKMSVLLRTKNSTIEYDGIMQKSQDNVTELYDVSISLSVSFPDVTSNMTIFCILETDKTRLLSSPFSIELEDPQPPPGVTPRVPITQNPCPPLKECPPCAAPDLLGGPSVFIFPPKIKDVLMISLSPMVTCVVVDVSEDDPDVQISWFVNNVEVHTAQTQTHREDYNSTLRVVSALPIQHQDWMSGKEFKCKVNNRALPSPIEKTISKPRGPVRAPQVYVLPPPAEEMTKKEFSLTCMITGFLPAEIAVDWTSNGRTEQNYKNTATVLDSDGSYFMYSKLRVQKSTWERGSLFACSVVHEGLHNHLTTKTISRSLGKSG

T3: full-length human CD86 on HEK293 cells (human, UniProt P42081 24-329)
T3 sequence: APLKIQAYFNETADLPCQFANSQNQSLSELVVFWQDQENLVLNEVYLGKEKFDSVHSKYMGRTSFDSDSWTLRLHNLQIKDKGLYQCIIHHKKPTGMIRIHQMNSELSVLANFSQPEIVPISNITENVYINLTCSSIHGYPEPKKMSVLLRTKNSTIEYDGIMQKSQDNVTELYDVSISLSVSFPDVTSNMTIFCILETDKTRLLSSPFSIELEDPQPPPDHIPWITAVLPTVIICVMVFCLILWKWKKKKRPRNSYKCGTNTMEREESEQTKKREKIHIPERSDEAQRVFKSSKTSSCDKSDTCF


Columns and labels:
[1] = molecular target: T1, human CD80-murine Ig fusion protein; assay: SPR Biacore, hCD80-mIg captured
Protocol: (§1) All Biacore™ analyses were performed on a Biacore™ 2000 system (GE Healthcare) at room temperature (RT, 25° C.). HBS-EP buffer (10 mM HEPES (pH 7.4), 150 mM NaCl, 3 mM EDTA, 0.005% surfactant P20) was used as the flow buffer for all experiments.
(§2) Rabbit anti-mouse IgG antibody (GE Healthcare, #BR-1005-14) was immobilized on CM5 sensor chips (GE Healthcare, #BR-1000-14) according to the manufacturer's protocol. Antibody was diluted to 30 μg/ml in immobilization buffer (10 mM sodium acetate, pH 5.0 (BR-1003-51)). At a flow rate of 5 μl/minute, sensor chip CM5 was activated with a 35 μl injection of a mixture of 1-Ethyl-3-[3-dimethylaminopropyl]carbodiimide hydrochloride (EDC) and N-hydroxysuccinimide (NHS) (made by mixing equal volumes of 11.5 mg/ml EDC and 75 mg/ml NHS) (GE Healthcare, #BR-1000-50), followed by a 35 μl injection of undiluted antibody. Un-reacted sites were quenched with 35 μl of 1M ethanolamine-HCL, pH 8.5 (GE Healthcare, #BR-1000-50). […] CTLA-4 ligands human CD80-murine Ig (hCD80-mIg) (Ancell, #510-820) or human CD86-murine Ig (hCD86-mIg) (Ancell, #509-820) were bound to antibody-coated sensor chips by injection of 10 μl or 16 μl, respectively, ligand solution (2 μg/ml protein in HBS-EP buffer [10 mM HEPES pH 7.4, 150 mM NaCl, 3 mM EDTA, 0.005% (v/v) surfactant P-20, GE Healthcare, #BR-1001-88]) at a flow rate of 10 μl/min.

[2] = molecular target: T2, human CD86-murine Ig fusion protein; assay: SPR Biacore, hCD86-mIg captured
Protocol: as §1, §2

[3] = molecular target: T3, full-length human CD86 on HEK293 cells; assay: cell-based or functional assay

| Binding Avidity (Relative to Orencia) [1] [fold] | Kd [1] [nM] | Binding Avidity (Relative to Orencia) [2] [fold] | Mean IC50 (nM), CD4+ T cell proliferation [3] [nM] | Kd [2] [nM] | Binder |
| --- | --- | --- | --- | --- | --- |
| 1.34 | 0.655 | 1.32 | 2.24 |  | human CTLA-4-IgG2 fusion protein (Fc fusion, Disulfide-linked dimer; also called hCTLA-4-IgG2; hCTLA-4-Ig) not shown |
|  | 0.219 to 0.439 |  |  | 0.523 to 1.05 | LEA29Y-Ig fusion protein (Fc fusion, dimer; also called Belatacept; LEA-Ig) MHVAQPAVVLASSRGIASFVCEYASPGKYTEVRVTVLRQADSQVTEVCAATYMMGNELTFLDDSICTGTSSGNQVNLTIQGLRAMDTGLYICKVELMYPPPYYEGIGNGTQIYVIDPEPCPDSDQ[human IgG1 Fc with changes skipped] |
